# According to paper PMC9911399, “Two distinct binding modes provide the RNA-binding protein RbFox with extraordinary sequence specificity”:
# Changes are numbered by the printed parent chain; changes in the protein carry UniProt numbers. Some of the results follow.
# B1: GAGCGCC (DNA:RNA)
# RNA: GGGAGACCGGAAUUCAGAUUGUCCGAGCGCCUUAAAUCCCGUCGUAGCCACCA
# DNA 1: CAATCTGAATTCCGGTCTCCC
# DNA 2: TGGTGGCTACGACGGGATT
# B2: UCAAACU (DNA:RNA)
# RNA: B1 RNA with G25U, A26C, G27A, C28A, G29A, C31U
# DNA 1: CAATCTGAATTCCGGTCTCCC
# DNA 2: TGGTGGCTACGACGGGATT
# B3: GAUUACA (DNA:RNA)
# RNA: B1 RNA with G27U, C28U, G29A, C31A
# DNA 1: CAATCTGAATTCCGGTCTCCC
# DNA 2: TGGTGGCTACGACGGGATT
# B4: UUAAAAC (DNA:RNA)
# RNA: B1 RNA with G25U, A26U, G27A, C28A, G29A, C30A
# DNA 1: CAATCTGAATTCCGGTCTCCC
# DNA 2: TGGTGGCTACGACGGGATT
# B5: CCAGUAG (DNA:RNA)
# RNA: GGGAGACCGGAAUUCAGAUUGUCCCCAGUAGUUAAAUCCCGUCGUAGCCACCA
# DNA 1: CAATCTGAATTCCGGTCTCCC
# DNA 2: TGGTGGCTACGACGGGATT
# B6: AAGGUAA (DNA:RNA)
# RNA: B5 RNA with C25A, C26A, A27G, G31A
# DNA 1: CAATCTGAATTCCGGTCTCCC
# DNA 2: TGGTGGCTACGACGGGATT
# B7: AUUAUAA (DNA:RNA)
# RNA: B5 RNA with C25A, C26U, A27U, G28A, G31A
# DNA 1: CAATCTGAATTCCGGTCTCCC
# DNA 2: TGGTGGCTACGACGGGATT
# B8: UUAGCAU (DNA:RNA)
# RNA: B5 RNA with C25U, C26U, U29C, G31U
# DNA 1: CAATCTGAATTCCGGTCTCCC
# DNA 2: TGGTGGCTACGACGGGATT
# B9: GCACUUG (DNA:RNA)
# RNA: B5 RNA with C25G, G28C, A30U
# DNA 1: CAATCTGAATTCCGGTCTCCC
# DNA 2: TGGTGGCTACGACGGGATT
# B10: CAGUGCA (DNA:RNA)
# RNA: B1 RNA with G25C, C28U, C31A
# DNA 1: CAATCTGAATTCCGGTCTCCC
# DNA 2: TGGTGGCTACGACGGGATT
# B11: GGUAUAA (DNA:RNA)
# RNA: B5 RNA with C25G, C26G, A27U, G28A, G31A
# DNA 1: CAATCTGAATTCCGGTCTCCC
# DNA 2: TGGTGGCTACGACGGGATT
# B12: UCCCGCA (DNA:RNA)
# RNA: B1 RNA with G25U, A26C, G27C, C31A
# DNA 1: CAATCTGAATTCCGGTCTCCC
# DNA 2: TGGTGGCTACGACGGGATT
# B13: CCCACAG (DNA:RNA)
# RNA: B5 RNA with A27C, G28A, U29C
# DNA 1: CAATCTGAATTCCGGTCTCCC
# DNA 2: TGGTGGCTACGACGGGATT
# B14: CCGACUG (DNA:RNA)
# RNA: B5 RNA with A27G, G28A, U29C, A30U
# DNA 1: CAATCTGAATTCCGGTCTCCC
# DNA 2: TGGTGGCTACGACGGGATT
# B15: CUAGCAC (DNA:RNA)
# RNA: B5 RNA with C26U, U29C, G31C
# DNA 1: CAATCTGAATTCCGGTCTCCC
# DNA 2: TGGTGGCTACGACGGGATT
# B16: GCCGGUG (DNA:RNA)
# RNA: B5 RNA with C25G, A27C, U29G, A30U
# DNA 1: CAATCTGAATTCCGGTCTCCC
# DNA 2: TGGTGGCTACGACGGGATT
# B17: GGCGACC (DNA:RNA)
# RNA: B1 RNA with A26G, G27C, C28G, G29A
# DNA 1: CAATCTGAATTCCGGTCTCCC
# DNA 2: TGGTGGCTACGACGGGATT
# B18: CAGUGCG (DNA:RNA)
# RNA: B1 RNA with G25C, C28U, C31G
# DNA 1: CAATCTGAATTCCGGTCTCCC
# DNA 2: TGGTGGCTACGACGGGATT
# B19: CUUUUCA (DNA:RNA)
# RNA: B5 RNA with C26U, A27U, G28U, A30C, G31A
# DNA 1: CAATCTGAATTCCGGTCTCCC
# DNA 2: TGGTGGCTACGACGGGATT
# B20: UAUGCCA (DNA:RNA)
# RNA: B1 RNA with G25U, G27U, C28G, G29C, C31A
# DNA 1: CAATCTGAATTCCGGTCTCCC
# DNA 2: TGGTGGCTACGACGGGATT
# B21: CAACAUC (DNA:RNA)
# RNA: B1 RNA with G25C, G27A, G29A, C30U
# DNA 1: CAATCTGAATTCCGGTCTCCC
# DNA 2: TGGTGGCTACGACGGGATT
# B22: GAAACAA (DNA:RNA)
# RNA: B5 RNA with C25G, C26A, G28A, U29C, G31A
# DNA 1: CAATCTGAATTCCGGTCTCCC
# DNA 2: TGGTGGCTACGACGGGATT
# B23: UAACAGA (DNA:RNA)
# RNA: B1 RNA with G25U, G27A, G29A, C30G, C31A
# DNA 1: CAATCTGAATTCCGGTCTCCC
# DNA 2: TGGTGGCTACGACGGGATT
# B24: UAUAAAA (DNA:RNA)
# RNA: B5 RNA with C25U, C26A, A27U, G28A, U29A, G31A
# DNA 1: CAATCTGAATTCCGGTCTCCC
# DNA 2: TGGTGGCTACGACGGGATT
# B25: CAAGUAA (DNA:RNA)
# RNA: B5 RNA with C26A, G31A
# DNA 1: CAATCTGAATTCCGGTCTCCC
# DNA 2: TGGTGGCTACGACGGGATT
# B26: AGAUUAC (DNA:RNA)
# RNA: B5 RNA with C25A, C26G, G28U, G31C
# DNA 1: CAATCTGAATTCCGGTCTCCC
# DNA 2: TGGTGGCTACGACGGGATT
# B27: UCCAUCU (DNA:RNA)
# RNA: B5 RNA with C25U, A27C, G28A, A30C, G31U
# DNA 1: CAATCTGAATTCCGGTCTCCC
# DNA 2: TGGTGGCTACGACGGGATT
# B28: CCUGGGG (DNA:RNA)
# RNA: B5 RNA with A27U, U29G, A30G
# DNA 1: CAATCTGAATTCCGGTCTCCC
# DNA 2: TGGTGGCTACGACGGGATT
# B29: CUGUGUA (DNA:RNA)
# RNA: B1 RNA with G25C, A26U, C28U, C30U, C31A
# DNA 1: CAATCTGAATTCCGGTCTCCC
# DNA 2: TGGTGGCTACGACGGGATT
# B30: GUAACAA (DNA:RNA)
# RNA: B5 RNA with C25G, C26U, G28A, U29C, G31A
# DNA 1: CAATCTGAATTCCGGTCTCCC
# DNA 2: TGGTGGCTACGACGGGATT
# B31: AGUGUGC (DNA:RNA)
# RNA: B5 RNA with C25A, C26G, A27U, A30G, G31C
# DNA 1: CAATCTGAATTCCGGTCTCCC
# DNA 2: TGGTGGCTACGACGGGATT
# Target: T1, RBFOX1 RRM (Homo sapiens, UniProt Q9NWB1 109-208)
# T1 sequence: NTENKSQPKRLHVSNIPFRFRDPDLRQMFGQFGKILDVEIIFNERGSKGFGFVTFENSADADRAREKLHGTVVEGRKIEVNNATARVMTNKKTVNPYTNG
# Assay: EMSA; HiTS-Eq, 1 nM pool, 10 min; buffer printed only for the single-RNA assays: 10 mM Tris pH 7.5, 150 mM NaCl, 3.4 mM EDTA, 0.001% NP-40, 30 C
# Details: tags: His6 N-terminal (pET28a); label: 5' 32P
# Method in brief: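 A pool of RNA with 7 randomized nucleotides, 5′-radiolabelled and with DNA-annealed flanks, was equilibrated at 1 nM for 10 min in 50 µL with purified RbFox RRM, wild type or mutant, across increasing protein concentrations. Free RNA was separated by 8% native PAGE, excised, reverse-transcribed, barcoded by PCR and sequenced. Relative association constants were obtained from read-count changes of each RNA species versus the control reaction and normalised to the cognate motif.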
row,Binder,binding signal
1,B1,0.0127 KA relative to UGCAUGU
2,B2,0.00177 KA relative to UGCAUGU
3,B3,0.0041 KA relative to UGCAUGU
4,B4,0.00198 KA relative to UGCAUGU
5,B5,0.00661 KA relative to UGCAUGU
6,B6,0.00817 KA relative to UGCAUGU
7,B7,0.000958 KA relative to UGCAUGU
8,B8,0.0106 KA relative to UGCAUGU
9,B9,0.0128 KA relative to UGCAUGU
10,B10,0.0149 KA relative to UGCAUGU
11,B11,0.000883 KA relative to UGCAUGU
12,B12,0.008 KA relative to UGCAUGU
13,B13,0.0104 KA relative to UGCAUGU
14,B14,0.0117 KA relative to UGCAUGU
15,B15,0.01 KA relative to UGCAUGU
16,B16,0.0209 KA relative to UGCAUGU

row,Binder,binding signal
1,B17,0.00927 KA relative to UGCAUGU
2,B18,0.0125 KA relative to UGCAUGU
3,B19,0.00677 KA relative to UGCAUGU
4,B20,0.00839 KA relative to UGCAUGU
5,B21,0.000741 KA relative to UGCAUGU
6,B22,0.00256 KA relative to UGCAUGU
7,B23,0.00571 KA relative to UGCAUGU
8,B24,0.00768 KA relative to UGCAUGU
9,B25,0.00166 KA relative to UGCAUGU
10,B26,0.00241 KA relative to UGCAUGU
11,B27,0.00481 KA relative to UGCAUGU
12,B28,0.00787 KA relative to UGCAUGU
13,B29,0.0155 KA relative to UGCAUGU
14,B30,0.00241 KA relative to UGCAUGU
15,B31,0.0192 KA relative to UGCAUGU
